Data from paper PMC12820563, “FoxP3 forms a head-to-head dimer in vivo and stabilizes its multimerization on adjacent microsatellites”.
The list shows a part of the results.

Each sequence was assayed against T1, MBP-FoxP1dN (Mus musculus, UniProt P58462 326-579) (assay: PD-seq (MBP pull-down with sequencing); 20 mM Tris-HCl pH 7.5, 100 mM NaCl, 1.5 mM MgCl2, 0.4 uM protein, 0.1 uM dsDNA library, 30 min, room temperature, amylose pull-down; high values mean tight binding). Settings: protein: recombinant; tags: His6-MBP; chain copies: 2; dsDNA, one strand shown.
T1 sequence: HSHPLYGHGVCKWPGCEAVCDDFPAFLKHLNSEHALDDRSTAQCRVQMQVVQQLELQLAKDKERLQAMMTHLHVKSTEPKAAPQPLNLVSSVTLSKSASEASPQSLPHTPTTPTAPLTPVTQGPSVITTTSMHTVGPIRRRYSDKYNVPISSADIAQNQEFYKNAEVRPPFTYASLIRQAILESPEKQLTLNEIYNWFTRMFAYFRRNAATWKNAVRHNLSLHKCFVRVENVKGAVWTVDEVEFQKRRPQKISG
Summary of the method: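 In Tris pH 7.5 buffer with NaCl and MgCl2, 0.4 µM His6-MBP-tagged mouse FoxP3 or FoxP1 fragment lacking the N-terminus, from E. coli, met 0.1 µM Klenow-filled double-stranded degenerate DNA library for 30 min at room temperature. Three washes on amylose resin followed capture of the complexes, then proteinase K release of DNA, PCR barcoding and Illumina sequencing. Binding is taken as pooled-replicate reads-per-million enrichment of pull-down relative to input.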

Row | Sequence | binding signal
1 | GATGATTGTTCTCCCAGCTGATGAATTAGTTGACTCGAGTAAACAAATTTTCCTAATCTTTCTGTTCAAGCGCCATCTAC | 0.998 RPM ratio (pull-down/input)
2 | GATGATTGTTCTCCCAGCTGATGAATTGAGCCATTCGAGTAAACAAATTTTCCTAATCTTTCTGTTCAAGCGCCATCTAC | 0.805 RPM ratio (pull-down/input)
3 | GATGATTGTTCTCCCAGCTGATGAATTCATAACCTCGAGTAAACAAATTTTCCTAATCTTTCTGTTCAAGCGCCATCTAC | 0.896 RPM ratio (pull-down/input)
4 | GATGATTGTTCTCCCAGCTGATGAATTCTTGTTGTCGAGTAAACAAATTTTCCTAATCTTTCTGTTCAAGCGCCATCTAC | 2.6 RPM ratio (pull-down/input)
5 | GATGATTGTTCTCCCAGCTGATGAATTGATGACCTCGAGTAAACAAATTTTCCTAATCTTTCTGTTCAAGCGCCATCTAC | 1.02 RPM ratio (pull-down/input)
6 | GATGATTGTTCTCCCAGCTGATGAATTAGTCTGATCGAGTAAACAAATTTTCCTAATCTTTCTGTTCAAGCGCCATCTAC | 0.895 RPM ratio (pull-down/input)
7 | GATGATTGTTCTCCCAGCTGATGAATTGTGAACTTCGAGTAAACAAATTTTCCTAATCTTTCTGTTCAAGCGCCATCTAC | 1.01 RPM ratio (pull-down/input)
8 | GATGATTGTTCTCCCAGCTGATGAATTTCCGTACTCGAGTAAACAAATTTTCCTAATCTTTCTGTTCAAGCGCCATCTAC | 0.85 RPM ratio (pull-down/input)
9 | GATGATTGTTCTCCCAGCTGATGAATTAAAGAATTCGAGTAAACAAATTTTCCTAATCTTTCTGTTCAAGCGCCATCTAC | 0.892 RPM ratio (pull-down/input)
10 | GATGATTGTTCTCCCAGCTGATGAATTTCAGGTTTCGAGTAAACAAATTTTCCTAATCTTTCTGTTCAAGCGCCATCTAC | 0.841 RPM ratio (pull-down/input)
11 | GATGATTGTTCTCCCAGCTGATGAATTCGATCAATCGAGTAAACAAATTTTCCTAATCTTTCTGTTCAAGCGCCATCTAC | 1.05 RPM ratio (pull-down/input)
12 | GATGATTGTTCTCCCAGCTGATGAATTTTGAGAATCGAGTAAACAAATTTTCCTAATCTTTCTGTTCAAGCGCCATCTAC | 0.914 RPM ratio (pull-down/input)
13 | GATGATTGTTCTCCCAGCTGATGAATTGGCCGTGTCGAGTAAACAAATTTTCCTAATCTTTCTGTTCAAGCGCCATCTAC | 0.836 RPM ratio (pull-down/input)
14 | GATGATTGTTCTCCCAGCTGATGAATTCCGGATGTCGAGTAAACAAATTTTCCTAATCTTTCTGTTCAAGCGCCATCTAC | 0.78 RPM ratio (pull-down/input)
15 | GATGATTGTTCTCCCAGCTGATGAATTGGCTATGTCGAGTAAACAAATTTTCCTAATCTTTCTGTTCAAGCGCCATCTAC | 0.854 RPM ratio (pull-down/input)
16 | GATGATTGTTCTCCCAGCTGATGAATTCTTGAAATCGAGTAAACAAATTTTCCTAATCTTTCTGTTCAAGCGCCATCTAC | 1.04 RPM ratio (pull-down/input)
17 | GATGATTGTTCTCCCAGCTGATGAATTCTGTACATCGAGTAAACAAATTTTCCTAATCTTTCTGTTCAAGCGCCATCTAC | 1.09 RPM ratio (pull-down/input)
18 | GATGATTGTTCTCCCAGCTGATGAATTGTTGAGATCGAGTAAACAAATTTTCCTAATCTTTCTGTTCAAGCGCCATCTAC | 1.25 RPM ratio (pull-down/input)
19 | GATGATTGTTCTCCCAGCTGATGAATTTAAGTTTTCGAGTAAACAAATTTTCCTAATCTTTCTGTTCAAGCGCCATCTAC | 1.16 RPM ratio (pull-down/input)
20 | GATGATTGTTCTCCCAGCTGATGAATTTTACTTTTCGAGTAAACAAATTTTCCTAATCTTTCTGTTCAAGCGCCATCTAC | 0.937 RPM ratio (pull-down/input)
21 | GATGATTGTTCTCCCAGCTGATGAATTGAATTGGTCGAGTAAACAAATTTTCCTAATCTTTCTGTTCAAGCGCCATCTAC | 0.837 RPM ratio (pull-down/input)

Row | Sequence | binding signal
22 | GATGATTGTTCTCCCAGCTGATGAATTGCGCGAGTCGAGTAAACAAATTTTCCTAATCTTTCTGTTCAAGCGCCATCTAC | 0.96 RPM ratio (pull-down/input)
23 | GATGATTGTTCTCCCAGCTGATGAATTTAACTAATCGAGTAAACAAATTTTCCTAATCTTTCTGTTCAAGCGCCATCTAC | 1.03 RPM ratio (pull-down/input)
24 | GATGATTGTTCTCCCAGCTGATGAATTCGTGAACTCGAGTAAACAAATTTTCCTAATCTTTCTGTTCAAGCGCCATCTAC | 0.851 RPM ratio (pull-down/input)
25 | GATGATTGTTCTCCCAGCTGATGAATTAGTTCACTCGAGTAAACAAATTTTCCTAATCTTTCTGTTCAAGCGCCATCTAC | 0.966 RPM ratio (pull-down/input)
26 | GATGATTGTTCTCCCAGCTGATGAATTAATGGTGTCGAGTAAACAAATTTTCCTAATCTTTCTGTTCAAGCGCCATCTAC | 1 RPM ratio (pull-down/input)
27 | GATGATTGTTCTCCCAGCTGATGAATTGACAATTTCGAGTAAACAAATTTTCCTAATCTTTCTGTTCAAGCGCCATCTAC | 1.39 RPM ratio (pull-down/input)
28 | GATGATTGTTCTCCCAGCTGATGAATTGCTTGCTTCGAGTAAACAAATTTTCCTAATCTTTCTGTTCAAGCGCCATCTAC | 1.11 RPM ratio (pull-down/input)
29 | GATGATTGTTCTCCCAGCTGATGAATTACCTCATTCGAGTAAACAAATTTTCCTAATCTTTCTGTTCAAGCGCCATCTAC | 1.01 RPM ratio (pull-down/input)
30 | GATGATTGTTCTCCCAGCTGATGAATTACAAAGTTCGAGTAAACAAATTTTCCTAATCTTTCTGTTCAAGCGCCATCTAC | 1.37 RPM ratio (pull-down/input)
31 | GATGATTGTTCTCCCAGCTGATGAATTACAGGATTCGAGTAAACAAATTTTCCTAATCTTTCTGTTCAAGCGCCATCTAC | 1.06 RPM ratio (pull-down/input)
32 | GATGATTGTTCTCCCAGCTGATGAATTCAGCTGGTCGAGTAAACAAATTTTCCTAATCTTTCTGTTCAAGCGCCATCTAC | 0.947 RPM ratio (pull-down/input)
33 | GATGATTGTTCTCCCAGCTGATGAATTGTGGAGCTCGAGTAAACAAATTTTCCTAATCTTTCTGTTCAAGCGCCATCTAC | 0.84 RPM ratio (pull-down/input)
34 | GATGATTGTTCTCCCAGCTGATGAATTTCGCTACTCGAGTAAACAAATTTTCCTAATCTTTCTGTTCAAGCGCCATCTAC | 0.848 RPM ratio (pull-down/input)
35 | GATGATTGTTCTCCCAGCTGATGAATTAACCGCATCGAGTAAACAAATTTTCCTAATCTTTCTGTTCAAGCGCCATCTAC | 1.12 RPM ratio (pull-down/input)
36 | GATGATTGTTCTCCCAGCTGATGAATTAGCGACTTCGAGTAAACAAATTTTCCTAATCTTTCTGTTCAAGCGCCATCTAC | 0.879 RPM ratio (pull-down/input)
37 | GATGATTGTTCTCCCAGCTGATGAATTTTAGCAGTCGAGTAAACAAATTTTCCTAATCTTTCTGTTCAAGCGCCATCTAC | 0.811 RPM ratio (pull-down/input)
38 | GATGATTGTTCTCCCAGCTGATGAATTGTTAAGATCGAGTAAACAAATTTTCCTAATCTTTCTGTTCAAGCGCCATCTAC | 1.11 RPM ratio (pull-down/input)
39 | GATGATTGTTCTCCCAGCTGATGAATTTCCGAAGTCGAGTAAACAAATTTTCCTAATCTTTCTGTTCAAGCGCCATCTAC | 0.787 RPM ratio (pull-down/input)
40 | GATGATTGTTCTCCCAGCTGATGAATTTAGGTTCTCGAGTAAACAAATTTTCCTAATCTTTCTGTTCAAGCGCCATCTAC | 0.901 RPM ratio (pull-down/input)
41 | GATGATTGTTCTCCCAGCTGATGAATTCCTGACATCGAGTAAACAAATTTTCCTAATCTTTCTGTTCAAGCGCCATCTAC | 0.897 RPM ratio (pull-down/input)
42 | GATGATTGTTCTCCCAGCTGATGAATTGCCTATTTCGAGTAAACAAATTTTCCTAATCTTTCTGTTCAAGCGCCATCTAC | 1.12 RPM ratio (pull-down/input)

Row | Sequence | binding signal
43 | GATGATTGTTCTCCCAGCTGATGAATTCTCCGCTTCGAGTAAACAAATTTTCCTAATCTTTCTGTTCAAGCGCCATCTAC | 0.94 RPM ratio (pull-down/input)
44 | GATGATTGTTCTCCCAGCTGATGAATTCCTCGGATCGAGTAAACAAATTTTCCTAATCTTTCTGTTCAAGCGCCATCTAC | 0.795 RPM ratio (pull-down/input)
45 | GATGATTGTTCTCCCAGCTGATGAATTCAAAGCCTCGAGTAAACAAATTTTCCTAATCTTTCTGTTCAAGCGCCATCTAC | 0.795 RPM ratio (pull-down/input)
46 | GATGATTGTTCTCCCAGCTGATGAATTGTCCCTTTCGAGTAAACAAATTTTCCTAATCTTTCTGTTCAAGCGCCATCTAC | 1.01 RPM ratio (pull-down/input)
47 | GATGATTGTTCTCCCAGCTGATGAATTAGCAATATCGAGTAAACAAATTTTCCTAATCTTTCTGTTCAAGCGCCATCTAC | 1.19 RPM ratio (pull-down/input)
48 | GATGATTGTTCTCCCAGCTGATGAATTTATAGTGTCGAGTAAACAAATTTTCCTAATCTTTCTGTTCAAGCGCCATCTAC | 1.2 RPM ratio (pull-down/input)
49 | GATGATTGTTCTCCCAGCTGATGAATTTCATTACTCGAGTAAACAAATTTTCCTAATCTTTCTGTTCAAGCGCCATCTAC | 0.95 RPM ratio (pull-down/input)
50 | GATGATTGTTCTCCCAGCTGATGAATTGCTCACGTCGAGTAAACAAATTTTCCTAATCTTTCTGTTCAAGCGCCATCTAC | 0.992 RPM ratio (pull-down/input)
51 | GATGATTGTTCTCCCAGCTGATGAATTCGTCCGATCGAGTAAACAAATTTTCCTAATCTTTCTGTTCAAGCGCCATCTAC | 0.822 RPM ratio (pull-down/input)
52 | GATGATTGTTCTCCCAGCTGATGAATTAATTACCTCGAGTAAACAAATTTTCCTAATCTTTCTGTTCAAGCGCCATCTAC | 1.1 RPM ratio (pull-down/input)
53 | GATGATTGTTCTCCCAGCTGATGAATTACATGAGTCGAGTAAACAAATTTTCCTAATCTTTCTGTTCAAGCGCCATCTAC | 1.15 RPM ratio (pull-down/input)
54 | GATGATTGTTCTCCCAGCTGATGAATTTTTTGGTTCGAGTAAACAAATTTTCCTAATCTTTCTGTTCAAGCGCCATCTAC | 1.01 RPM ratio (pull-down/input)
55 | GATGATTGTTCTCCCAGCTGATGAATTCTAATCATCGAGTAAACAAATTTTCCTAATCTTTCTGTTCAAGCGCCATCTAC | 1.1 RPM ratio (pull-down/input)
56 | GATGATTGTTCTCCCAGCTGATGAATTTTAGACTTCGAGTAAACAAATTTTCCTAATCTTTCTGTTCAAGCGCCATCTAC | 0.835 RPM ratio (pull-down/input)
57 | GATGATTGTTCTCCCAGCTGATGAATTTTCTCCTTCGAGTAAACAAATTTTCCTAATCTTTCTGTTCAAGCGCCATCTAC | 0.846 RPM ratio (pull-down/input)
58 | GATGATTGTTCTCCCAGCTGATGAATTCTCCCTCTCGAGTAAACAAATTTTCCTAATCTTTCTGTTCAAGCGCCATCTAC | 0.869 RPM ratio (pull-down/input)
59 | GATGATTGTTCTCCCAGCTGATGAATTTTAAGAGTCGAGTAAACAAATTTTCCTAATCTTTCTGTTCAAGCGCCATCTAC | 0.835 RPM ratio (pull-down/input)
60 | GATGATTGTTCTCCCAGCTGATGAATTGGCGTCCTCGAGTAAACAAATTTTCCTAATCTTTCTGTTCAAGCGCCATCTAC | 0.871 RPM ratio (pull-down/input)
61 | GATGATTGTTCTCCCAGCTGATGAATTATCCAACTCGAGTAAACAAATTTTCCTAATCTTTCTGTTCAAGCGCCATCTAC | 0.939 RPM ratio (pull-down/input)
62 | GATGATTGTTCTCCCAGCTGATGAATTAGCCATATCGAGTAAACAAATTTTCCTAATCTTTCTGTTCAAGCGCCATCTAC | 0.942 RPM ratio (pull-down/input)
63 | GATGATTGTTCTCCCAGCTGATGAATTTAGTACGTCGAGTAAACAAATTTTCCTAATCTTTCTGTTCAAGCGCCATCTAC | 1.08 RPM ratio (pull-down/input)
